From the BET-seq Pho4 binding data (Le et al. 2018)
The list shows a part of the results. The energies were worked out here from pooled read counts, against the library average; single values are noisy.

Target: T1, Pho4 (S. cerevisiae) (UniProt P07270)
T1 sequence: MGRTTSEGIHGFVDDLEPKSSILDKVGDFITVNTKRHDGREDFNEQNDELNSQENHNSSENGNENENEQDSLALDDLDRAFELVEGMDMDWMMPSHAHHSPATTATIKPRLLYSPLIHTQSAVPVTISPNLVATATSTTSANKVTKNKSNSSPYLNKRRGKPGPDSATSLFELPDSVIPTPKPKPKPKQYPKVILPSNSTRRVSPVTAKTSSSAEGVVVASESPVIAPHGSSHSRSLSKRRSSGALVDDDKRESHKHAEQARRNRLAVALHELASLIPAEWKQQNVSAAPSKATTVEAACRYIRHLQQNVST
Assay: relative binding free energy (BET-seq); higher = weaker binding
Settings: reference: library average

Sequence | relative binding free energy
TCGGACACGTGTATTT | 0.17 kcal/mol
GTGTACACGTGGGTTC | -0.05 kcal/mol
GTGGTCACGTGTGAAG | 0.3 kcal/mol
TTAATCACGTGTTTTC | 0.26 kcal/mol
CGGGTCACGTGTATCT | 0.21 kcal/mol
GGGTCCACGTGTGGGC | 0.08 kcal/mol
ATGTCCACGTGGTTTA | -0.11 kcal/mol
AGATGCACGTGTTCGG | 0.02 kcal/mol
TAATGCACGTGTTTGT | -0.07 kcal/mol
GGGATCACGTGCAGTG | 0.27 kcal/mol
GATGCCACGTGGAGAG | 0.14 kcal/mol
TTGGACACGTGGCGAT | 0.1 kcal/mol
GTCTTCACGTGCTGTG | 0.1 kcal/mol
ATGGGCACGTGAACTT | 0.14 kcal/mol
TGATGCACGTGGAATT | 0.15 kcal/mol
TTCGGCACGTGTATAT | 0 kcal/mol
AGCTTCACGTGTGTTG | 0.14 kcal/mol
ATGAACACGTGTGTCG | 0.17 kcal/mol
TAGGTCACGTGTAGTA | 0.18 kcal/mol
GTTATCACGTGTCGTG | 0.24 kcal/mol
TGGTTCACGTGAATCT | 0.37 kcal/mol
GATCACACGTGTGTTG | 0.23 kcal/mol
ACGGCCACGTGAGGGG | 0.09 kcal/mol
TGCTGCACGTGGTAGG | 0 kcal/mol
CCTTGCACGTGGGGGG | -0.2 kcal/mol
GGTGCCACGTGGAGAG | 0.13 kcal/mol

Sequence | relative binding free energy
TTTACCACGTGGGTTA | -0.15 kcal/mol
CATTTCACGTGAGGGA | 0.35 kcal/mol
GCGAGCACGTGGGCAG | -0.17 kcal/mol
GGAAGCACGTGACGGG | 0.05 kcal/mol
TATTTCACGTGAAGAG | 0.38 kcal/mol
TAGAGCACGTGCGGAT | -0.1 kcal/mol
AGGGACACGTGTGAGA | 0.13 kcal/mol
TTTAGCACGTGCGTGG | -0.07 kcal/mol
TCTATCACGTGGGGTC | 0.16 kcal/mol
TGTGGCACGTGCTTTA | -0.16 kcal/mol
AGTTCCACGTGGGTAG | -0.1 kcal/mol
TAGTTCACGTGGTTTT | 0.35 kcal/mol
CTGAGCACGTGGGAGT | -0.03 kcal/mol
GAGTACACGTGCGGTG | 0 kcal/mol
TTTATCACGTGGACGG | 0.25 kcal/mol
TACGTCACGTGATGAT | 0.26 kcal/mol
TTCGTCACGTGGACGG | 0.12 kcal/mol
TATTTCACGTGTACGA | 0.3 kcal/mol
TCCGACACGTGGTGTT | 0.03 kcal/mol
AGAGGCACGTGTGGAA | 0.02 kcal/mol
TAGTGCACGTGTTATA | 0.02 kcal/mol
TGTTACACGTGGGTTA | 0.08 kcal/mol
TAAGACACGTGGAGGT | -0.07 kcal/mol
TATTTCACGTGGTTCT | 0.14 kcal/mol
TTTTTCACGTGCCTTG | 0.3 kcal/mol
TTTTCCACGTGTAGCG | 0.18 kcal/mol

Sequence | relative binding free energy
GTATCCACGTGTTTGT | 0.06 kcal/mol
GAGGTCACGTGCTCGG | 0.01 kcal/mol
GTATTCACGTGGTGCA | 0.14 kcal/mol
CTGTGCACGTGAGTTA | 0.15 kcal/mol
AGGTGCACGTGGGGAA | -0.11 kcal/mol
GTTTTCACGTGAAGCG | 0.35 kcal/mol
TAGCGCACGTGGTGAG | -0.2 kcal/mol
GAAGTCACGTGTTGAT | 0.12 kcal/mol
AGGGCCACGTGAAGGA | 0.26 kcal/mol
TACGACACGTGGGGAG | -0.07 kcal/mol
TGCTTCACGTGTCTGG | 0.26 kcal/mol
AGCGCCACGTGTGTGT | -0.19 kcal/mol
GTCTGCACGTGGTAGG | 0.03 kcal/mol
ACTTTCACGTGGTGAT | 0.14 kcal/mol
TATCGCACGTGCTGGG | -0.03 kcal/mol
TGGTACACGTGACGGA | 0.22 kcal/mol
GTTTGCACGTGGTGTA | -0.02 kcal/mol
TTAGGCACGTGCATGG | -0.07 kcal/mol
GGGTGCACGTGATGTG | 0.17 kcal/mol
AGTGTCACGTGGAACT | 0.08 kcal/mol
TAATGCACGTGAGTGC | 0.15 kcal/mol
AAGTTCACGTGAAGTC | 0.5 kcal/mol
GTGATCACGTGTGCGG | 0.16 kcal/mol
ATTTGCACGTGTGAGA | 0.21 kcal/mol
TAGTGCACGTGTGTTC | 0 kcal/mol
TCGGACACGTGTGGAA | 0.14 kcal/mol

Sequence | relative binding free energy
GTTTGCACGTGTGCCG | 0.08 kcal/mol
GTTGGCACGTGGAGGC | -0.01 kcal/mol
AGGGGCACGTGGCACG | -0.2 kcal/mol
TGGGTCACGTGTGCCT | -0.01 kcal/mol
GGATGCACGTGGATAG | -0.17 kcal/mol
GGCCTCACGTGTGTGT | 0.24 kcal/mol
AGCTGCACGTGGTTGG | -0.13 kcal/mol
ATGGCCACGTGGGAGG | -0.16 kcal/mol
TGCTGCACGTGAGTGT | 0.22 kcal/mol
GTGGGCACGTGGCTGA | -0.12 kcal/mol
TTACACACGTGTTTGT | 0.02 kcal/mol
GAGTGCACGTGTTAAT | -0.01 kcal/mol
CGGTGCACGTGTGATT | 0.08 kcal/mol
TTAAGCACGTGTCTTG | -0.15 kcal/mol
GCTGGCACGTGCTGGG | -0.11 kcal/mol
AGCGTCACGTGTGGGG | 0.09 kcal/mol
AGTCTCACGTGTGTCG | 0.25 kcal/mol
TGTTGCACGTGGCGTT | -0.08 kcal/mol
AAGTTCACGTGGCGTG | 0.27 kcal/mol
AGGTGCACGTGTCGGT | -0.06 kcal/mol
TAAAGCACGTGCTGGG | -0.08 kcal/mol
TTGCGCACGTGTTAGA | -0.07 kcal/mol
TGGGACACGTGTGTAA | 0.13 kcal/mol
CGGGACACGTGGGACT | 0.07 kcal/mol
AGGTGCACGTGGACAT | -0.15 kcal/mol
TTGGGCACGTGTTTTA | 0.03 kcal/mol

Sequence | relative binding free energy
GGCTTCACGTGGGTGG | 0.19 kcal/mol
ATTGTCACGTGATATG | 0.19 kcal/mol
TTTCGCACGTGCTTTT | -0.14 kcal/mol
GGGCACACGTGGGAAT | 0.12 kcal/mol
TGTGGCACGTGGACTG | -0.29 kcal/mol
TAGGGCACGTGAAATG | 0.11 kcal/mol
TGGTGCACGTGGATAG | 0.05 kcal/mol
GTGAGCACGTGAATAG | 0.21 kcal/mol
TCTAGCACGTGAGGGA | 0.23 kcal/mol
TTCTGCACGTGTTGCG | -0.03 kcal/mol
TGTTTCACGTGATGGC | 0.47 kcal/mol
TGTGGCACGTGTGGCC | -0.08 kcal/mol
GTGATCACGTGGTCGC | 0.17 kcal/mol
AAGATCACGTGTCTTG | 0.26 kcal/mol
TTTTGCACGTGTGCCG | 0.14 kcal/mol
GTACACACGTGGTGTA | 0.05 kcal/mol
GGTGGCACGTGCAGTT | -0.12 kcal/mol
TTGTTCACGTGTGGGC | 0.36 kcal/mol
TGTTTCACGTGCGCGT | 0.15 kcal/mol
GATGTCACGTGGTTAT | 0.05 kcal/mol
TGAGACACGTGAGTTA | 0.28 kcal/mol
GGAGTCACGTGATCTG | 0.27 kcal/mol
AGTAGCACGTGTCATG | 0.05 kcal/mol
AGTGGCACGTGCTGCT | -0.21 kcal/mol
AATAGCACGTGGTGGA | -0.23 kcal/mol
TGGGACACGTGAAAGA | 0.54 kcal/mol

Sequence | relative binding free energy
ACGATCACGTGGGTAT | 0.1 kcal/mol
ATGTTCACGTGGTTTT | 0.29 kcal/mol
ATTGTCACGTGTGAAG | 0.14 kcal/mol
TGGGACACGTGGTTAA | -0.04 kcal/mol
TGATTCACGTGACGAG | 0.51 kcal/mol
GGGCCCACGTGGGTTG | -0.24 kcal/mol
TATGACACGTGCTGGG | -0.05 kcal/mol
TATCGCACGTGTAGGT | -0.05 kcal/mol
GTTATCACGTGGTTTA | 0.15 kcal/mol
GGTTACACGTGGGCTA | 0.12 kcal/mol
GTGTTCACGTGTTGAC | 0.29 kcal/mol
AGAATCACGTGGGGCA | 0.02 kcal/mol
GTTGTCACGTGGACAG | 0.08 kcal/mol
CTAAGCACGTGTAGTG | -0.09 kcal/mol
TATGGCACGTGTTGTA | -0.16 kcal/mol
TGTAGCACGTGGTCTG | -0.24 kcal/mol
GGTAACACGTGCGGAT | 0.16 kcal/mol
GCGTTCACGTGGTGAG | 0.26 kcal/mol
AAGGTCACGTGCATTG | 0.13 kcal/mol
TTTATCACGTGAGTTG | 0.41 kcal/mol
GAATTCACGTGAGTAA | 0.73 kcal/mol
TATGGCACGTGAGTCA | 0.12 kcal/mol
ATTTACACGTGCAGGG | 0.13 kcal/mol
AGTAGCACGTGTGTGT | -0.08 kcal/mol
AGGGGCACGTGGGCAG | -0.19 kcal/mol
TGGGACACGTGGAGTC | 0.07 kcal/mol

Sequence | relative binding free energy
GAGATCACGTGAGTTT | 0.42 kcal/mol
TGGAGCACGTGGGGCA | -0.27 kcal/mol
GCTTGCACGTGAGGTA | 0.16 kcal/mol
TACTTCACGTGTTCGT | 0.3 kcal/mol
GGTATCACGTGATATT | 0.13 kcal/mol
AGTGACACGTGTTGGT | 0.04 kcal/mol
TTCTGCACGTGCGGTT | -0.04 kcal/mol
TTGGACACGTGTTTCG | -0.15 kcal/mol
TTTAACACGTGGGAGG | -0.06 kcal/mol
TAGTGCACGTGTTACT | 0.01 kcal/mol
TGTTACACGTGTGGAC | 0.17 kcal/mol
TCAGACACGTGGGCGG | -0.13 kcal/mol
TAGGGCACGTGAGGCG | 0.07 kcal/mol
TGAATCACGTGGGGTG | 0.07 kcal/mol
CTGTGCACGTGGTTCT | -0.09 kcal/mol
GTGGTCACGTGGAGTC | 0.1 kcal/mol
CGTAACACGTGATGGT | 0.03 kcal/mol
CGAGTCACGTGGGCGG | -0.17 kcal/mol
TGGTTCACGTGGTATC | 0.23 kcal/mol
TATAGCACGTGTTTGT | -0.19 kcal/mol
TTAGGCACGTGGGAGG | -0.14 kcal/mol
GATTACACGTGAGTAG | 0.47 kcal/mol
TTTGCCACGTGGGAAT | -0.19 kcal/mol
TTTAGCACGTGGGGTG | -0.26 kcal/mol
TATTGCACGTGCCGGG | -0.13 kcal/mol
TACTGCACGTGGGTAT | -0.1 kcal/mol

Sequence | relative binding free energy
ACAAACACGTGGGGGG | -0.05 kcal/mol
GTGGGCACGTGTACAA | 0 kcal/mol
TGCGGCACGTGTTTAG | -0.07 kcal/mol
CGCATCACGTGTGTGT | 0.22 kcal/mol
TAGGTCACGTGCGTTC | 0.11 kcal/mol
TCGGACACGTGGGTAG | -0.17 kcal/mol
CTTGACACGTGAGGTA | 0.36 kcal/mol
CGATGCACGTGGGTTA | -0.12 kcal/mol
TTAGGCACGTGGATTT | -0.04 kcal/mol
GTTATCACGTGTAATT | 0.06 kcal/mol
GTCGTCACGTGGGCTG | -0.06 kcal/mol
CAGTGCACGTGTGATG | 0.07 kcal/mol
GGCAGCACGTGGAGGT | -0.17 kcal/mol
GGTTACACGTGGAGTA | 0.17 kcal/mol
ATTACCACGTGTTGTG | -0.19 kcal/mol
ATGTCCACGTGTGTGA | 0.01 kcal/mol
GTTCTCACGTGTGAAT | 0.33 kcal/mol
AATGTCACGTGTGTAG | 0.13 kcal/mol
TATAACACGTGTTATG | 0.02 kcal/mol
GTAAGCACGTGCGGGT | -0.17 kcal/mol
TATGTCACGTGAGTCT | 0.24 kcal/mol
TTTGGCACGTGGTTAT | -0.18 kcal/mol
TGTACCACGTGGGATT | -0.12 kcal/mol
CGTGTCACGTGCGGTT | 0.03 kcal/mol
GGTTGCACGTGGGTCC | -0.08 kcal/mol
GTCGGCACGTGGTGTT | -0.13 kcal/mol

Sequence | relative binding free energy
TTATTCACGTGATTCA | 0.26 kcal/mol
TTTGGCACGTGATATA | -0.06 kcal/mol
AGGTGCACGTGGGCCA | -0.23 kcal/mol
AGGTACACGTGGGAGA | 0.06 kcal/mol
GACTTCACGTGCGTGG | 0.24 kcal/mol
GTTCACACGTGTGATT | 0.22 kcal/mol
GTGGGCACGTGAGGAT | 0.2 kcal/mol
ATGAACACGTGCGGGT | -0.05 kcal/mol
TATGCCACGTGTTGTA | 0 kcal/mol
TTGGGCACGTGCCTTG | -0.1 kcal/mol
AGCTGCACGTGGGGAA | -0.1 kcal/mol
TTGTGCACGTGTCGAA | 0.09 kcal/mol
GTTGACACGTGCGGCT | -0.05 kcal/mol
TTGAACACGTGGGGTA | 0.03 kcal/mol
CCTGTCACGTGGTAGT | 0.08 kcal/mol
TTTTTCACGTGTGGCT | 0.37 kcal/mol
TTGGGCACGTGTCTTT | -0.06 kcal/mol
GCAACCACGTGGGGGT | -0.11 kcal/mol
AATTACACGTGATTGT | 0.25 kcal/mol
TTTTGCACGTGTTGAC | -0.02 kcal/mol
GGATGCACGTGTTTAT | -0.03 kcal/mol
GTGACCACGTGGCGGT | -0.08 kcal/mol
